In article PMC3483465 (FEBS letters, 2012):

Columns and labels:
[1] = biological target: T1, Escherichia coli DNA damage inducible DNA helicase DinG (E. coli, UniProt P27296 1-716); assay: cell-based or functional assay
T1 sequence (looked up): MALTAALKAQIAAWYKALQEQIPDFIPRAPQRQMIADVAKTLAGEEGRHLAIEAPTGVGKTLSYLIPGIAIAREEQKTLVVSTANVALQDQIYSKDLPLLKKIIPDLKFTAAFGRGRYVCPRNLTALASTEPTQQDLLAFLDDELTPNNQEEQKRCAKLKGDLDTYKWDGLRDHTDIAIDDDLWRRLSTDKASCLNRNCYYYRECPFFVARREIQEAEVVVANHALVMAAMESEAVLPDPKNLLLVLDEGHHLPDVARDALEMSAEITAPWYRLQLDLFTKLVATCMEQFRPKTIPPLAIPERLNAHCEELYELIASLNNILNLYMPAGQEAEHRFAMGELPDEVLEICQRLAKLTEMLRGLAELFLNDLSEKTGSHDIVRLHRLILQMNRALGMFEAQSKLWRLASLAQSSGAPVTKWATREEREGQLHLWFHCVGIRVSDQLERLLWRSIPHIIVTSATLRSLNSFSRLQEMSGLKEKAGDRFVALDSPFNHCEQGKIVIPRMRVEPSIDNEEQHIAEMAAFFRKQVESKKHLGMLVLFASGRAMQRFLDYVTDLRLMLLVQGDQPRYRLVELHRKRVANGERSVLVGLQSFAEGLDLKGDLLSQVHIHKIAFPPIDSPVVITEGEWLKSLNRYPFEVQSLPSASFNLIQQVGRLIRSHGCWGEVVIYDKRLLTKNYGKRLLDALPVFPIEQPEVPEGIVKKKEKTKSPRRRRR

[2] = biological target: the molecule itself; assay: SEC

B1: Escherichia coli single-stranded DNA binding protein (SSB), wild type (natural protein)
chain: not shown
In the case of B1, the “DinG DNA helicase activity, 25, 50 and 100 nM DinG with or without 1 μM SSB” value [1] is reported as ≥ 2 fold and the “stoichiometry N” value [2] is reported as 4.
